Experimental data: PubChem BioAssay (Tox21)
Where “and” joins values, the source holds several entries; their conditions need not be identical. Equal entries are not always repeated. The shares of active, inactive and inconclusive entries below differ from those in the screen. For part of these data: Potencies of inconclusive entries are doubtful fits and often do not repeat. Some structures have more than one record in an assay (separate samples or runs), and their calls can disagree. Calls of active or inactive are those of the source. Unless noted, the call rests on the fitted dose curve; in most records, active means well fitted curve in the direction sought with a large enough effect in the repeat runs; inconclusive means weak or mixed curves; inactive means no such curve, though single readings can be large; an effect the other way counts as inactive or inconclusive.

How the values were obtained:
[1] = target: Glucocorticoid receptor (Homo sapiens) (UniProt P04150); assay: qHTS assay to identify small molecule antagonists of the glucocorticoid receptor (GR) signaling pathway (AID 720692; active means well fitted inhibition curve with a large enough effect in the signal ratio in the repeat runs, not every such curve was filed as active; inconclusive means weak or mixed curves, or effect the other way; inactive means no such curve, though single readings can be large or run the other way; the % refers to the signal ratio; further: on the % scale 0 is the no-effect control and ±100 the full control effect); conditions: GR-bla HeLa, beta-lactamase FRET ratio, dexamethasone-stimulated, 18 h
In short: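 Tox21 10K library screened in concentration-response for blockade of dexamethasone (5 nM final)-induced GRE-bla reporter activity in HeLa cells; 18 h treatment, fluorescence read.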

[2] = qHTS assay for identifying genotoxic compounds that show differential cytotoxicity against isogenic chicken DT40 cell lines with known DNA damage response pathways - wild type cell line (AID 743012); conditions: DT40 wild type chicken cells viability, CellTiter-Glo, 40 h; activity change, negative = cytotoxicity: at 68.4 µM (top of the series) unless noted; further: nearly all actives have a fitted effect of over 60% in size; further: potency means the concentration at half of the fitted maximal effect
In short: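 Endpoint: CellTiter-Glo luminescence, 30 min RT. Cells: wild type DT40, 300/well. Exposure: compounds in DMSO, 40 h, 37 C/5% CO2, after ~0.5 h pre-incubation.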

[3] = qHTS assay for small molecule agonists of the antioxidant response element (ARE) signaling pathway (AID 743202; active means well fitted activation curve with a large enough effect in the signal ratio in the repeat runs, not every such curve was filed as active; inconclusive means weak or mixed curves, or effect the other way; inactive means no such curve, though single readings can be large or run the other way; the % refers to the signal ratio; further: potency means the concentration at half of the fitted maximal effect; on activation: on the % scale 0 is the no-effect control and ±100 the full control effect); conditions: HepG2 ARE-bla reporter, beta-lactamase FRET, 16 h
In short: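 Following a 16 h, 37 C exposure of reporter HepG2 cells (ARE-driven beta-lactamase, 2,000 cells/well) to compounds, FRET substrate was applied for 2 h at room temperature and fluorescence intensity recorded.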

[4] = qHTS assay to identify small molecule agonists of the farnesoid-X-receptor (FXR) signaling pathway - cell viability counter screen (AID 743218); conditions: FXR-bla HEK293T viability, CellTiter-Glo luminescence, 16 h; viability change, negative = cytotoxic: at 62.6 µM (top of the series); further: potency means the concentration at half of the fitted maximal effect; nearly all actives have a fitted effect of over 45% in size
In short: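 Same-well cytotoxicity check on FXR-UAS-bla HEK 293T cells: 5 h attachment, 16 h compound at 37 C, CellTiter-Glo luminescence read at room temperature after 30 min.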

[5] = target: Retinoic acid receptor RXR-alpha (Homo sapiens) (UniProt P19793); assay: qHTS assay to identify small molecule agonists of the RXR signaling pathway (AID 1159527; calls by dose curve; further: nearly all actives have a fitted effect of over 35% in size; further: potency means the concentration at half of the fitted maximal effect; on activation: on the % scale 0 is the no-effect control and ±100 the full control effect); conditions: HEK293T RXRa-UAS-bla, beta-lactamase ratio, 16 h
In short: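 Agonist mode; 9-cis retinoic acid positive control. HEK 293T UAS-bla reporter cells, 2% charcoal-stripped FBS, 16 hr compound exposure at 37 C/5% CO2. LiveBLAzer B/G FRET substrate 2 hr RT; ex 405, em 460/530 nm.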

[6] = qHTS assay to identify small molecule agonists of the RXR signaling pathway - cell viability counter screen (AID 1159529); further: on the % scale 0 is the no-effect control and ±100 the full control effect; nearly all actives have a fitted effect of over 50% in size
In short: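 Luminescence from CellTiter-Glo (30 min, RT) measured viability in the same wells as the beta-lactamase reporter readout. Cells: GeneBLAzer RXR-alpha HEK 293T, 2% charcoal-stripped FBS. Compound exposure 16 hr, 37 C.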

[7] = target: Cytochrome P450 2C9 (Homo sapiens) (UniProt P11712); assay: Cytochrome P450 Family 2 Subfamily C Member 9 (CYP2C9) small molecule antagonists: luciferase reporter qHTS assay (AID 1671198); further: nearly all actives have a fitted effect of over 50% in size; further: potency means the concentration at half of the fitted maximal effect; on activity change, negative = inhibition: on the % scale 0 is the no-effect control and ±100 the full control effect
In short: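 CYP2C9 activity was measured with a P450-Glo proluciferin substrate. Enzyme–substrate mix was held with compound for 10 min at room temperature, then NADPH regeneration solution was added for 1 h at 37C. Luciferin product was read as luminescence.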

[8] = qHTS assay for small molecule disruptors of the mitochondrial membrane potential (AID 720635); conditions: HepG2 mitochondrial membrane potential, Mito-MPS dye ratio; ratio activity, negative = MMP loss: at 83.2 µM (top of the series) unless noted; further: potency means the concentration at half of the fitted maximal effect
In short: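 HepG2 cells (2,000/well) attached overnight at 37C, then took compound for 1 hr at 37C, 5% CO2. Mito-MPS dye was added for 30 min; fluorescence was read at 490/535 nm (monomers) and 540/590 nm (aggregates).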

[9] = qHTS assay to identify small molecule antagonists of the thyroid receptor (TR) signaling pathway - cell viability counter screen (AID 743064); conditions: GH3.TRE-Luc viability, CellTiter-Fluor, 24 h; activity change, negative = cytotoxic: at 70.3 µM (top of the series) unless noted; further: nearly all actives have a fitted effect of over 50% in size; further: potency means the concentration at half of the fitted maximal effect
In short: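 GH3.TRE-Luc cells, 4 h pre-plating; cpd + T3 1 nM final; 37 °C 23.5 h; CellTiter-Fluor 30 min; fluorescence read.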

[10] = qHTS assay to identify small molecule antagonists of the estrogen receptor alpha (ER-alpha) signaling pathway - cell viability counter screen (AID 743074; calls by dose curve;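 further: HEK293 cells carrying ER-alpha-UAS-bla reporter stimulated with 17beta-estradiol; potency means the concentration at half of the fitted maximal effect; nearly all actives have a fitted effect of over 45% in size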)
[11] = target: Vitamin D3 receptor (Homo sapiens) (UniProt P11473); assay: qHTS assay to identify small molecule antagonists of the vitamin D receptor (VDR) signaling pathway (AID 743223; active means well fitted inhibition curve with a large enough effect in the signal ratio in the repeat runs, not every such curve was filed as active; inconclusive means weak or mixed curves, or effect the other way; inactive means no such curve, though single readings can be large or run the other way; the % refers to the signal ratio; further: potency means the concentration at half of the fitted maximal effect); conditions: VDR-UAS-bla HEK293T, beta-lactamase FRET ratio, 16 h; activity change, negative = inhibition: at 61 µM (top of the series) unless noted
In short: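 Beta-lactamase reporter read-out: FRET substrate fluorescence after 2 h at room temperature, following 16 h exposure of VDR-bla cells to test compound plus 3 nM (final) 1alpha,25-dihydroxyvitamin D3 agonist at 37C.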

[12] = target: Cytochrome P450 1A2 (Homo sapiens) (UniProt P05177); assay: Cytochrome P450 Family 1 Subfamily A Member 2 (CYP1A2) small molecule antagonists: luciferase reporter qHTS assay (AID 1671199); further: potency means the concentration at half of the fitted maximal effect; nearly all actives have a fitted effect of over 50% in size
In short: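 Read-out is luminescence from luciferin detection reagent (20 min) proportional to CYP1A2 activity; compounds in DMSO preincubated 10 min with enzyme and proluciferin substrate, then NADPH regeneration solution, 1 h, room temperature.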

[13] = qHTS assay to identify small molecule antagonists of the sonic hedgehog signaling (Shh) pathway (AID 1259369; calls by dose curve; further: potency means the concentration at half of the fitted maximal effect; nearly all actives have a fitted effect of over 45% in size)
In short: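 NIH/3T3 stable Gli1-Luc clone, 2,000 cells/well, 4hr settle; cpd + conditioned medium 24hr; Luc reagent 30min RT; luminescence.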

[14] = qHTS assay for identifying genotoxic compounds that show differential cytotoxicity against isogenic chicken DT40 cell lines with known DNA damage response pathways - Rev3 mutant cell line (AID 743014); conditions: chicken DT40 Rev3-/- viability, CellTiter-Glo, 40 h; activity, negative = cytotoxicity: at 68.4 µM (top of the series); further: on the % scale 0 is the no-effect control and ±100 the full control effect; nearly all actives have a fitted effect of over 55% in size
[15] = target: Peroxisome proliferator-activated receptor gamma (Homo sapiens) (UniProt P37231); assay: qHTS assay to identify small molecule antagonists of the peroxisome proliferator-activated receptor gamma (PPARg) signaling pathway (AID 743191; calls by dose curve; further: on the % scale 0 is the no-effect control and ±100 the full control effect; nearly all actives have a fitted effect of over 30% in size); conditions: HEK293H PPARg-UAS-bla, beta-lactamase ratio, antagonist, 17 h
In short: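 GeneBLAzer PPARg UAS-bla HEK293H cells carrying a UAS-driven beta-lactamase reporter were plated at 3000 cells/well, preincubated 5 h at 37C, then given compound for 17 h at 37C; LiveBLAzer B/G FRET substrate was read after 1 h at room temperature.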

[16] = qHTS assay to identify small molecule agonists of the progesterone receptor (PR) signaling pathway - cell viability counter screen (AID 1346799; calls by dose curve; further: nearly all actives have a fitted effect of over 45% in size; further: potency means the concentration at half of the fitted maximal effect)
In short: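 HEK293T PR-UAS-bla, 3,000 cells/well, 2% charcoal-stripped FBS; 6 h settle, compound 16 h at 37C/5% CO2; LiveBLAzer 2 h RT, then CellTiter-Glo 30 min RT, luminescence read.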

[17] = target: Cytochrome P450 2D6 (Homo sapiens) (UniProt P10635); assay: Cytochrome P450 Family 2 Subfamily D Member 6 (CYP2D6) small molecule antagonists: luciferase reporter qHTS assay (AID 1671196); further: nearly all actives have a fitted effect of over 50% in size; further: potency means the concentration at half of the fitted maximal effect
In short: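 Chemicals tested for interference with CYP2D6 activity; proluciferin substrate, NADPH regeneration, 1 h at room temperature, luminescent detection.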

[18] = target: Progesterone receptor (Homo sapiens) (UniProt P06401); assay: qHTS assay to identify small molecule antagonists of the progesterone receptor (PR) signaling pathway (AID 1346795; active means well fitted inhibition curve with a large enough effect in the signal ratio in the repeat runs, not every such curve was filed as active; inconclusive means weak or mixed curves; the % refers to the signal ratio; further: potency means the concentration at half of the fitted maximal effect); conditions: PR-UAS-bla HEK293T, beta-lactamase FRET ratio, 16 h; activity change, negative = inhibition: at 92.4 µM (top of the series) unless noted
In short: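 Beta-lactamase reporter, HEK293T PR-UAS-bla line; 2% charcoal-stripped FBS; 6 hr pre-incubation, 37C/5% CO2. Compound + R5020 1 nM final, 16 hr. LiveBLAzer B/G FRET substrate, 2 hr RT; fluorescence intensity read.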

[19] = target: Cytochrome P450 2C19 (Homo sapiens) (UniProt P33261); assay: Cytochrome P450 Family 2 Subfamily C Member 19 (CYP2C19) small molecule antagonists: luciferase reporter qHTS assay (AID 1671197); further: nearly all actives have a fitted effect of over 65% in size; further: potency means the concentration at half of the fitted maximal effect
In short: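 Inhibition of CYP2C19 was scored from loss of luminescence in a P450-Glo proluciferin substrate assay, NADPH-started and run 1 h at 37C, with ketoconazole as positive control.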

[20] = activity change, negative = inhibition: at 58.5 µM (top of the series) unless noted
[21] = activation: at 76.8 µM (top of the series) unless noted
[22] = activation: at 73.3 µM (top of the series) unless noted
[23] = ratio activity, negative = inhibition: at 62.6 µM (top of the series) unless noted
Tags describe the fitted curve by direction and shape or compound fluorescence and quenching.

Sequence of UniProt P33261 (P33261 whole entry, looked up): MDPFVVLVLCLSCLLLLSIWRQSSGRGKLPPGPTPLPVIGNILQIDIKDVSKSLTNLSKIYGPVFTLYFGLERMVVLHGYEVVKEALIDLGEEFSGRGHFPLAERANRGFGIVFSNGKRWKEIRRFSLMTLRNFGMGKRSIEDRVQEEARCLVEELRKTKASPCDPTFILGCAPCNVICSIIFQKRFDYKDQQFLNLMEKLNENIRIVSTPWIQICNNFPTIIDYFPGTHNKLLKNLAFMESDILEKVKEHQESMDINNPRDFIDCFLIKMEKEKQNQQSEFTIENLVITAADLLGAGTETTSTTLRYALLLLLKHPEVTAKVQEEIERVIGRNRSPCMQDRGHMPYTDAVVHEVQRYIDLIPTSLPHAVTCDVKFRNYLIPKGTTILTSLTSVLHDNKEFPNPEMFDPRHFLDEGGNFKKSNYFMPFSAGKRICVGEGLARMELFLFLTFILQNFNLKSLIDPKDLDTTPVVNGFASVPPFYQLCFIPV
Sequence of UniProt P11473 (P11473 whole entry, looked up): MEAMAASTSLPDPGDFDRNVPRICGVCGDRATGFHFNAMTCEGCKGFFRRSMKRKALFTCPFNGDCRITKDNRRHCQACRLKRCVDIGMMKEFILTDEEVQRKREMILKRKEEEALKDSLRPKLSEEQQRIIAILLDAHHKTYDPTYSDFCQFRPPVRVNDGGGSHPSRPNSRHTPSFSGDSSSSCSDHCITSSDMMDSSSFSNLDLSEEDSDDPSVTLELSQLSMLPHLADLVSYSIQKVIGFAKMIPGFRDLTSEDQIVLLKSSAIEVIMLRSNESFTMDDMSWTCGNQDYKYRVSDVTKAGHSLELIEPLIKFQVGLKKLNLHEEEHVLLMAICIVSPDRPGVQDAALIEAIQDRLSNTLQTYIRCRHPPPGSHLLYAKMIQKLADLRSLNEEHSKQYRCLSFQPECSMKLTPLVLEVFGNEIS
Sequence of UniProt P05177 (P05177 whole entry, looked up): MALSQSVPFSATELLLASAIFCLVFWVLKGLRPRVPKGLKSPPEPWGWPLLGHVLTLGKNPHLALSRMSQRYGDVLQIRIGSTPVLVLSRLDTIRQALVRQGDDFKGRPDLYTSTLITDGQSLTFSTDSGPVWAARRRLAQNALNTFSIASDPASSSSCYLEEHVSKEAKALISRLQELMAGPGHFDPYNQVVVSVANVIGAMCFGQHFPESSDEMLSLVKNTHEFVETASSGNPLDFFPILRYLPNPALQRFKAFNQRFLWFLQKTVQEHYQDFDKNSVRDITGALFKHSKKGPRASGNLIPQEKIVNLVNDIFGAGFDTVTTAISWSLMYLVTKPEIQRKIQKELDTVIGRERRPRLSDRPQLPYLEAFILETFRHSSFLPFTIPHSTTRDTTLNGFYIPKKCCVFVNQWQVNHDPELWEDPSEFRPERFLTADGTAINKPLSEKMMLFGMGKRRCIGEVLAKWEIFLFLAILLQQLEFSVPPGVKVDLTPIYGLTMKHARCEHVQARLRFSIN
Sequence of UniProt P06401 (P06401 whole entry, looked up): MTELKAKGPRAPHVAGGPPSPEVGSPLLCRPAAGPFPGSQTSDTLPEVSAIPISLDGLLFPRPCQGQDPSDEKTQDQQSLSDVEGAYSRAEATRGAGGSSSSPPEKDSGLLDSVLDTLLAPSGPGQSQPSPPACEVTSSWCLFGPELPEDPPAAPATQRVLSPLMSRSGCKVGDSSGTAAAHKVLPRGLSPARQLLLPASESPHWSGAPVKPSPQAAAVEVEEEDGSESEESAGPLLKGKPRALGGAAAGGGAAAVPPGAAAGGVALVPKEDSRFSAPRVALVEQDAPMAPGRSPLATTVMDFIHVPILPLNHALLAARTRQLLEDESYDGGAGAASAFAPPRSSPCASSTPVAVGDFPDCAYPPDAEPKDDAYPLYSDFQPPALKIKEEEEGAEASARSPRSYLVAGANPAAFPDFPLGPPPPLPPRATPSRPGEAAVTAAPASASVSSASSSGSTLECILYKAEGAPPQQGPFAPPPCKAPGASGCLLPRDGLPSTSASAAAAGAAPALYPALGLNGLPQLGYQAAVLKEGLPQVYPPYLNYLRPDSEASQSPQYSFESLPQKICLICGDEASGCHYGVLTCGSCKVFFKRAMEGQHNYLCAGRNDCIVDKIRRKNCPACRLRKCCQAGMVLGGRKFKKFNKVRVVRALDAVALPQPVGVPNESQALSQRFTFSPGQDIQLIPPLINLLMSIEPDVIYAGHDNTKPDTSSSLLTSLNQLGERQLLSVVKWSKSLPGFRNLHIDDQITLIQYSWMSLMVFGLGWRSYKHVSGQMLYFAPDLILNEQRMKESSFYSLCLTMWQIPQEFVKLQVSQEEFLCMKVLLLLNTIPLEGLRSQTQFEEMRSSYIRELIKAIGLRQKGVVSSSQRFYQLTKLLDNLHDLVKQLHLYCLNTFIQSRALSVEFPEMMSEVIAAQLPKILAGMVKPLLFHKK
Sequence of UniProt P37231 (P37231 whole entry, looked up): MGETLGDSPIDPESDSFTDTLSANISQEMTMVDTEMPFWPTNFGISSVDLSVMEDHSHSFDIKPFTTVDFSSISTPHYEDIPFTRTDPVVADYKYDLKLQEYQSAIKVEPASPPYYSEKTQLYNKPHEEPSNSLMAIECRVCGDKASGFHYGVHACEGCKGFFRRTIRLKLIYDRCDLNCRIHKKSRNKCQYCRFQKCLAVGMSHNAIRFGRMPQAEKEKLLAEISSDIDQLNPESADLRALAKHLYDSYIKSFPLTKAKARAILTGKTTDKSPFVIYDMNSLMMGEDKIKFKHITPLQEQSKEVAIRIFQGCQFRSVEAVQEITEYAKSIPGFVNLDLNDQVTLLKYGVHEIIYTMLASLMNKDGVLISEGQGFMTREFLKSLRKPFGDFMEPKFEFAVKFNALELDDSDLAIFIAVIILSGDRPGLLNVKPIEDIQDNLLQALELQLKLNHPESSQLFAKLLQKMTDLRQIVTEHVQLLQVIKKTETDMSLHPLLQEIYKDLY
Sequence of UniProt P04150 (P04150 whole entry, looked up): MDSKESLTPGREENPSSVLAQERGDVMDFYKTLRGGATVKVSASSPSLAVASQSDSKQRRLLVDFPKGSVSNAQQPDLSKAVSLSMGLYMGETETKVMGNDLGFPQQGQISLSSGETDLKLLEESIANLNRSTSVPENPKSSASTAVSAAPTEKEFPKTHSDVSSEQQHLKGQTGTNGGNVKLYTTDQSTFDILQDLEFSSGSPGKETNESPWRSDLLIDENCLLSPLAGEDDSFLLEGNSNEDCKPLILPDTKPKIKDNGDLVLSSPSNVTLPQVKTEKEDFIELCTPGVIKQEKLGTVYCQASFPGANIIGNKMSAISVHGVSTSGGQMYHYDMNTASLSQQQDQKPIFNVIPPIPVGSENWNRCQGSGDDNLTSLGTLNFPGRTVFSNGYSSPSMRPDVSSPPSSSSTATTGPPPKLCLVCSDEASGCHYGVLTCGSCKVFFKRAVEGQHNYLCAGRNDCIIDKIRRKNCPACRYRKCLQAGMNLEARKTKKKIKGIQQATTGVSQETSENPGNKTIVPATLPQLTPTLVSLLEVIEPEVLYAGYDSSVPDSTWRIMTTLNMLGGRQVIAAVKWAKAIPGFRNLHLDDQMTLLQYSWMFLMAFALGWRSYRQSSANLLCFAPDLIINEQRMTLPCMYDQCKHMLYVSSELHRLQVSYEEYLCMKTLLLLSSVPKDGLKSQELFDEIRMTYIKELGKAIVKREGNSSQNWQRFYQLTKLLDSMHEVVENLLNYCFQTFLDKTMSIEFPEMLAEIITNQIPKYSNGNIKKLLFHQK
Sequence of UniProt P10635 (P10635 whole entry, looked up): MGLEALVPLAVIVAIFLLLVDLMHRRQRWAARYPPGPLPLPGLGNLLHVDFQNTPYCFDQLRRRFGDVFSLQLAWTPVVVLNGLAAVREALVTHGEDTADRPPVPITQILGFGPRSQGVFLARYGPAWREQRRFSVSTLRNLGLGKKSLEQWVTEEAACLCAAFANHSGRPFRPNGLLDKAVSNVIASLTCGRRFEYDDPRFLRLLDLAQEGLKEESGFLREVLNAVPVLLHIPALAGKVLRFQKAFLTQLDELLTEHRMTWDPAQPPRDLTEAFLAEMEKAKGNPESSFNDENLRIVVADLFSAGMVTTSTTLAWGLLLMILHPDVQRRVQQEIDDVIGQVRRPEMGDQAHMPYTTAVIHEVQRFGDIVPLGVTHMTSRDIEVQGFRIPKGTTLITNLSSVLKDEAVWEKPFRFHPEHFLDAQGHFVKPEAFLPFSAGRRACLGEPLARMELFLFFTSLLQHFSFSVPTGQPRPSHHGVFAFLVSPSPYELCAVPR
Sequence of UniProt P11712 (P11712 whole entry, looked up): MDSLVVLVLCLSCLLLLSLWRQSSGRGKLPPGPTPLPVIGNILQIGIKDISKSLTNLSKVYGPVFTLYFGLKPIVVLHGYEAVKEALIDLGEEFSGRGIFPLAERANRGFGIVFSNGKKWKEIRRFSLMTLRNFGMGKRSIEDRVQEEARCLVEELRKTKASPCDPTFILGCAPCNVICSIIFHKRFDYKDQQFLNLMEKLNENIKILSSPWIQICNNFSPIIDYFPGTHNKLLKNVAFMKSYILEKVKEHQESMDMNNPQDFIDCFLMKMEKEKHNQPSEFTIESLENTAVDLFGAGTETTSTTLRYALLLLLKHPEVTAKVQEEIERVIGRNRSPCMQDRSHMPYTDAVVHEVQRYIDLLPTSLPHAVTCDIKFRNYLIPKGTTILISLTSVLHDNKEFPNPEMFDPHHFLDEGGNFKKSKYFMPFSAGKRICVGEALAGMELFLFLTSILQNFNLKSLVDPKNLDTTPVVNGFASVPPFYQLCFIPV

## CC(C)(Cl)Cl
[1]; [20]
  activity change, negative = inhibition: inconclusive: 10.3%
[2]
  Potency: inconclusive: 0.44 µM [rising, full curve, poor fit]
[3]; at 73.3 µM (top of the series)
  activation: inconclusive: -9.18%
[3]; at 94.8 µM (top of the series)
  activation: inconclusive: -4.35%
[4]
  Potency: inconclusive: 1.11 µM [rising, full curve, poor fit]
[5]; [21]
  Potency: inactive
[6]
  Potency: inactive
[7]
  Potency: inactive and inconclusive: 63.3 µM [inhibitor, partial curve, poor fit]

## COC(=O)NS(=O)(=O)c1ccc(N)cc1
[8]
  Potency: inactive and inconclusive: 48.6 µM [activator, partial curve, poor fit]
[2]
  activity change, negative = cytotoxicity: inconclusive: 19.7% [at 95 µM]
[9]
  Potency: inconclusive: 0.488 µM [rising, single point]
[10]
  Potency: inconclusive: 1.75 µM [cytotoxic, full curve, poor fit]
[3]; [22]
  Potency: inactive
[11]
  Potency: inactive
[5]; [21]
  activation: inconclusive: 7.69%
[12]
  Potency: inconclusive: 80 µM [inhibitor, partial curve, poor fit]

## N#CCBr
[8]
  ratio activity, negative = MMP loss: inconclusive: 0.0778% [at 95.3 µM]
[9]
  Potency: inactive
[5]; [21]
  activation: inconclusive: 19.4%
[6]
  Potency: inactive
[13]
  Potency: inconclusive: 0.253 µM [inhibitor, single point]
[7]
  Potency: inconclusive: 73.8 µM [inhibitor, partial curve, poor fit]

## NNCc1ccccc1
[8]
  Potency: active: 24.8 µM
[1]; [20]
  activity change, negative = inhibition: inconclusive: 8.03% [at 78.9 µM]
[14]
  Potency: inactive
[15]; [23]
  ratio activity, negative = inhibition: inconclusive: -18% [at 81.1 µM]
[3]; [22]
  Potency: active: 5.55 µM
[5]; [21]
  Potency: active: 22.3 µM
[6]
  Potency: inactive
[16]
  Potency: inconclusive: 55.5 µM [cytotoxic, partial curve, poor fit]
[17]
  Potency: active: 11.5 µM

## CCOP(=S)(OCC)Oc1ccc([N+](=O)[O-])cc1
[8]
  Potency: active: 55.1 µM
[1]; [20]
  Potency: inactive
[15]; at 81.1 µM (top of the series)
  ratio activity, negative = inhibition: inactive: -2.89%
[15]; [23]
  ratio activity, negative = inhibition: inconclusive: -0.415%
[3]; [22]
  Potency: inactive
[4]
  Potency: inconclusive: 0.0882 µM [rising, full curve, poor fit]
[5]; [21]
  activation: inconclusive: -6.41%
[5]; at 35.3 µM (top of the series)
  activation: inactive: -18.8%
[18]
  Potency: inconclusive: 1.23 µM [full curve] and inconclusive: 1.68 µM [full curve]

## CCSC(=O)N1CCCCCC1
[8]
  Potency: inconclusive: 59.4 µM [inhibitor, partial curve, poor fit]
[15]; [23]
  ratio activity, negative = inhibition: inconclusive: 4.36%
[5]; [21]
  Potency: inconclusive: 21.3 µM [rising, partial curve, poor fit]
[6]
  Potency: inactive
[18]
  Potency: inconclusive: 29.8 µM [falling, partial curve]
[17]
  Potency: active: 30.8 µM
[19]
  Potency: inconclusive: 89.4 µM [inhibitor, single point]
[12]
  Potency: inconclusive: 69 µM [inhibitor, partial curve]

## Clc1cccc(Cl)c1Cl
[8]
  Potency: inactive
[1]; [20]
  activity change, negative = inhibition: inconclusive: 10%
[1]; at 58.5 µM (top of the series)
  activity change, negative = inhibition: inactive: 4.31%
[2]
  Potency: inconclusive: 0.428 µM [rising, full curve]
[10]
  Potency: inconclusive: 21.6 µM [rising, partial curve, poor fit]
[3]; [22]
  activation: inconclusive: 0%
[3]; at 73.3 µM (top of the series)
  activation: inactive: -10.5%
[5]; [21]
  activation: inconclusive: 19.7%
[6]
  Potency: inactive
[19]
  Potency: active: 35.2 µM and inactive
[7]
  Potency: inconclusive: 62.5 µM [inhibitor, partial curve, poor fit]

## O=c1ccc(=O)[nH][nH]1
[10]
  Potency: inconclusive: 14.6 µM [rising, partial curve, poor fit]
[15]; [23]
  Potency: inactive
[3]; [22]
  activation: inconclusive: -11.6% [at 94.8 µM]
[3]; at 73.3 µM (top of the series)
  activation: inactive: 7.27%
[11]
  Potency: inconclusive: 54.5 µM [fluorescent]
[5]; [21]
  activation: inconclusive: 22.7%
[5]; at 76.8 µM (top of the series)
  activation: inactive: 11%
[16]
  Potency: inconclusive: 60.6 µM [rising, single point]
[19]
  Potency: inconclusive: 94.6 µM [inhibitor, single point]
[7]
  Potency: inconclusive: 94.6 µM [inhibitor, single point]
[12]
  Potency: inconclusive: 94.6 µM [inhibitor, partial curve, poor fit]

## O=C(O)COc1ccccc1
[8]
  Potency: inconclusive: 26.6 µM [activator]
[10]
  Potency: inconclusive: 0.138 µM [rising, full curve, poor fit]
[15]; [23]
  ratio activity, negative = inhibition: inconclusive: -0.0782%
[3]; [22]
  Potency: inactive
[4]
  Potency: inconclusive: 56.6 µM [rising, single point]
[11]
  activity change, negative = inhibition: inconclusive: -16.6%
[5]; [21]
  activation: inconclusive: 10.3% and inconclusive: -2.22%
[6]
  Potency: inactive
[16]
  Potency: inactive
[17]
  Potency: inactive
[12]
  Potency: inconclusive: 82.2 µM [inhibitor, partial curve, poor fit] and inconclusive: 27.5 µM [inhibitor, partial curve]
